Whole data set: some 13,000 compounds, median “IFI” near 4, cut for the highest 2% near 17. This is one part of the list.

The nature of this assay: GSK_TCMDC: Inhibition Frequency Index (IFI). The number of non-kinase HTS assays where a compound showed > 50 % inhibition, expressed as a percentage of the number of such assays in which the compound was tested (-0 is zero). The class given is functional.
For `Cc1ccc(F)c(OC2CCN(c3ccc(C(=O)NC4CC4)cn3)CC2)c1`, the IFI stood at 6.25%.
To `Cc1cccc2nc(-c3cccc(-c4cccc(NC(=O)CN5CCN(C)CC5)c4)c3)[nH]c12` belongs 1.8%.
In the case of `NC(=O)c1cnc2ccc(-c3cncs3)cc2c1Nc1ccc(F)c(Cl)c1`, the IFI is 6.43%.
Under `CN1CCN(c2ccc(-c3cccc(NC(=O)c4cccc([N+](=O)[O-])c4)c3)nn2)CC1` stands 2.41%; under `CC(=O)Oc1cc(C)ccc1C1CCN(CCCCNC(=O)c2ccc(-c3ccc(C(F)(F)F)cc3)cc2)CC1`, 2.26%.
As to `CC(=O)N/N=C/[C@H](CCc1ccccc1)NC(=O)[C@H](CC(C)C)NC(=O)c1cccc(OCCN2CCOCC2)c1`, the IFI was 4.59%.
`O=C(Nc1cc(C(F)(F)F)cc(C(F)(F)F)c1)c1cccc([N+](=O)[O-])c1` had an IFI of 1.34%.
Under `CC1CCN(Cc2cccc(C(=O)NCc3ccc(F)c(-c4cccc(CN5CCN[C@@H](C)C5)c4)c3)c2)CC1` stands 5.04%.
Under `CCOc1cc2ccccc2cc1CNCCCCCCNCc1cc2ccccc2cc1OCC` stands 11.5%; under `CC(C)(C)NS(=O)(=O)c1cc(C(=O)N2CCC(CCN3CCC(C(=O)c4ccc(F)cc4)CC3)(c3cccc(F)c3)CC2)c(Cl)cc1F`, 3.55%.
As for `CN(Cc1ccccc1)C1CCN(c2cc(NC(=O)c3cccc(F)c3)ccn2)CC1`, the IFI worked out at 2.78%.
To `Cc1cc(=O)c2cc(Oc3ccc(OC(F)(F)F)cc3)ccc2[nH]1` belongs 5.13%; to `O=C(Cc1ccccn1)Nc1cccc(-c2cccc(-c3nc4cc(C(F)(F)F)ccc4[nH]3)c2)c1`, 9.57%.
In turn, `Cn1cncc1CCN(Cc1ccc(-c2ccc(C(F)(F)F)cc2)cc1)C(=O)Cn1c(SCc2cccc(F)c2F)cc(=O)c2ccccc21` had an IFI of 5.22%.
To `CCC(O)(C#Cc1c(C)nc(N)nc1N)CC` belongs 2.16%.
The compound `C[C@H](NC(=O)c1c(CN2CCC(NC(=O)CC(C)(C)C)CC2)c(-c2cccs2)nc2ccccc12)C1CCCCC1` yielded an IFI of 1.59%.
To `CN(C)CCCOc1cccc(NC(=O)Nc2ccc(Cl)c(Cl)c2)c1` belongs 2.19%; to `N#Cc1cccc(NC(=O)Nc2cccc(OC3CCN(Cc4ccccc4)CC3)c2)c1`, 2.88%.
To `CC(=O)c1cccc2[nH]c(C(=O)NC3CCC(CCN4CCc5ccc(C#N)cc5C4)CC3)cc12` (configuration not stated) belongs 1.48%; to `CCCCCc1cc(OCCN(C)C)cc2c1C(=O)CC(C)(C)O2`, 2.13%.
Under `N#Cc1ccc(OCCN(Cc2ccccc2C(F)(F)F)c2ccc(C#N)c(C(F)(F)F)c2)cc1` stands -0%; under `COc1cc(C(=O)NC2CCN(Cc3ccccc3)CC2)ccc1-c1nc2cc(Cl)c(C)cc2[nH]1`, 0.76%; under `O=C(Nc1ccc(-c2cccc(-c3nc4ccccc4[nH]3)c2)cc1)Nc1ccc(Cl)c(Cl)c1`, 6.06%.
Consider `O=C(NC1CCN(Cc2ccccc2)CC1)c1cc(-c2ccncc2)nc2ccc(Cl)cc12`, for which the IFI came to 1.79%.
Consider `O=C(N[C@@H](Cc1ccccc1)C(=O)NCCN1CCCCC1)c1ccc(O)c(-c2ccc(Cl)c(Cl)c2)c1`, for which the IFI is 5%.
For `Cc1cc2[nH]c(-c3ccc(C(=O)NCCCN4CCN(c5cccc(Cl)c5)CC4)cc3F)nc2cc1Cl`, the IFI is 0.77%.
Under `Nc1nc(N)c2c(ccc3c2ccn3CCCC2CCCNC2)n1` (configuration not stated) stands 2.8%.
To `N#Cc1cccc(COC(=O)C2=C(COc3ccccc3Cl)NC(=O)NC2c2c[nH]c3cnccc23)c1` (configuration not stated) belongs 3.64%; to `Oc1c(Cl)cc(Nc2nccc(Nc3ccc(Oc4ccccc4)cc3)n2)cc1Cl`, 2.31%; to `COc1cccc(-c2ccc(O)c(CNCCc3cccc(F)c3)c2)n1`, 2.7%.
Under `CCc1ccc(NC(=O)c2ccc(CN3CCCN(Cc4cccs4)CC3)cc2)cc1` stands 6.35%; under `O=C(Nc1ccc(NC2=NCCN2)cc1)c1ccc(C(=O)Nc2ccc(NC3=NCCN3)cc2)cc1`, 2.27%.
The compound `O=C(Nc1ccc(OC2CCN(Cc3ccsc3)C2)c(Cl)c1)c1ccsc1` (configuration not stated) gave an IFI of 0%.
Under `Oc1cccc2ccc(Nc3ccccn3)nc12` stands 11.3%; under `CN(CCN(C)CC(O)c1ccc(Cl)c(Cl)c1)CC(O)c1ccc(Cl)c(Cl)c1` (configuration not stated), 3.76%.
As for `CN1CCN(CCCCCNc2c3ccccc3nc3ccccc23)CC1`, the IFI was found to be 5.63%.
`O=C(Nc1ccc(Cl)cc1)Nc1cccc(-c2cccc(-c3nc4cc(C(F)(F)F)ccc4[nH]3)c2)c1` had an IFI of 9%.
Compound `Cc1cc2nc(-c3ccc(/C=C/C(=O)NC4CCN(Cc5ccccc5)CC4)cc3)[nH]c2cc1C` returned an IFI of 3.76%.
`Cc1ccccc1OCC(O)CN1CCC(C2CCN(CC(O)COc3ccccc3C)CC2)CC1` (configuration not stated): the IFI is 5.8%.
To `C[C@@H](Oc1cc(-n2cnc3ccc(NC(=O)NC(C)(C)C)cc32)sc1C(N)=O)c1ccccc1Cl` belongs 7.35%; to `COc1ccc2nccc([C@@H](O)CN3CCC(NC(=O)C(=Cc4ccc(Cl)cc4Cl)c4ccc(-c5ccccc5)cc4)CC3)c2c1`, 0.74%.
Under `CCN(CC)S(=O)(=O)c1ccc(C=CC(=O)Nc2cc(Cl)ccc2N2CCOCC2)cc1` stands 1.61%; under `CCCCCn1c(Sc2ccc(C#N)c([N+](=O)[O-])c2)nnc1-c1cccc(Cl)c1`, 7.04%; under `Cc1cc(C(=O)N[C@H]2CCN(Cc3ccc(OCCCN(C)C)cc3)C2)ccc1Br`, 6.67%.
Under `CCCCCOc1ccc(/N=C2\C=C(O)C(=O)c3ccccc32)cc1` stands 2.92%; under `CNC(=O)c1ccc2nc(-c3ccc(-c4ccccc4)cc3)n(CC3CCN(CC4CCCC4)CC3)c2c1`, 4.13%.
The compound `COc1ccc2nccc([C@@H](O)CN3CCC(NCc4nc5ccc(F)cc5[nH]4)CC3)c2c1` registered an IFI of 0.73%.
Under `CSc1nc2cc3c(cc2n1C(=O)c1ccc(C)cc1)OCCO3` stands 2.53%; under `COc1cc2c(cc1OC)CN(CCCCc1ccc(NC(=O)c3cc(Cl)cc(Cl)c3)cc1)CC2`, 3.57%.
Under `Cc1cccc2nc(-c3cccc(-c4cccc(CNCCN5CCNCC5)c4)c3)[nH]c12` stands 8.91%; under `O=C1COc2ccc3ccccc3c21`, -0%; under `O=C(Nc1cccc(CN2CCCN(Cc3cccc(Cl)c3)CC2)c1)c1ccc(Cl)c(Cl)c1`, 7.43%.
Under `C[C@H](Cc1ccc(Oc2ccc(C[C@@H](C)NC[C@H](O)c3cccc(Cl)c3)cc2)cc1)NC[C@H](O)c1cccc(Cl)c1` stands 20.8%; under `CCNc1cc(C(=O)N[C@@H](Cc2ccccc2)[C@H](O)CNC2(Cc3cccc(Cl)c3)CCC2)cc(N2CCCCS2(=O)=O)c1`, 5.93%.
Take `CCOc1cc(NC(=O)Nc2ccnc3ccccc23)cc(OC)c1`: the IFI was 4.29%.
Under `CCCCN(CCCC)CCCN(CCCN(CCCC)CCCC)c1cc(C)nc(Nc2ccc(Br)cc2)n1` stands 14%.
To `Cc1[nH]c2c(NCc3ccc(F)cc3)nccc2c1C` belongs 5.36%; to `CCCCOc1c(CCC)cc(Cc2cnc(N)nc2N)cc1CCC`, 10.1%; to `CC(=O)N(C)C1CCN(Cc2cccc(-c3ccc(-c4nc5cc(C(F)(F)F)ccc5[nH]4)cc3)c2)C1` (configuration not stated), 2.82%.
The compound `CC(=O)N1N=C(c2ccc(Cl)cc2)Sc2c1nc(C1CCCCC1)n2C(C)=O` registered an IFI of 1.61%.
Compound `O=C1CCCN1CCCNCc1ccc(-c2cccc(-c3nc4cc(C(F)(F)F)ccc4[nH]3)c2)cc1` returned an IFI of 6.8%.
To `O=C(NC(=S)NCc1ccncc1)c1ccccc1` belongs -0%; to `COc1ccc2nccc([C@@H](O)CN3CCC(NCc4cc5c(F)ccc(F)c5[nH]4)CC3)c2c1`, 9.15%.
Under `O=C(Nc1ccc(C(F)(F)F)cc1)c1cccc(S(=O)(=O)NC2CCN(CC3CCCCC3)CC2)c1` stands 11.9%.
Under `COc1ccc(S(=O)(=O)NC2CCN(CCCOc3ccnc4cc(Cl)ccc34)C2)cc1OC` (configuration not stated) stands 0.88%; under `CCN(CC)CCN(Cc1ccc(-c2ccc(C(F)(F)F)cc2)cc1)C(=O)Cn1c(CCc2cc(F)c(F)c(F)c2)nc(=O)c2ccccc21`, 6.67%.
`CC(C)CNCc1ccc(-c2cccc(CN(CCN(C)C)C(=O)CCC3CCCC3)c2)cc1` gave an IFI of 9.15%.
In the case of `CCn1c(-c2nonc2N)nc2c(-c3cccc(Cl)c3)ncc(OCCCNCCc3c[nH]cn3)c21`, the IFI was determined as 7.69%.
To `Cc1cc(C)cc(OCC(O)CN(CCN2CCOCC2)C(=O)Nc2ccc(Br)cc2)c1` (configuration not stated) belongs 2.86%; to `O=C(N[C@H]1CCN(Cc2ccc(OC3CCN(Cc4ccccc4)CC3)c(Cl)c2)C1)c1ccc(Cl)c(Cl)c1`, 8%; to `O=C(Nc1ccc(Cl)cc1)NC1CCN(CCCCCNC(=O)C2CC2c2ccc(Cl)c(Cl)c2)CC1` (configuration not stated), 10.2%.
To `Cc1nnc(-c2cccc(Nc3ccnc4cc(-c5nccs5)ccc34)c2)o1` belongs 7.35%.
Turning to `N#Cc1ccc(C(=O)Nc2ccc(-c3cccc(CN4CCCC4)c3)cc2)cc1`, the IFI was 0.98%.
`CCOC(=O)C(=CNc1ccc(Cc2cnc(N)nc2N)cc1CC)C(=O)OCC` showed an IFI of 3.62%.
`COc1ccc(C=NN=c2cc(C)[nH]c3ccccc23)cc1OC` had an IFI of 2.84%.
For `COc1cc(C)nc2ccc(NC(=O)COCC(=O)Nc3ccc4nc(C)cc(OC)c4c3)cc12`, the IFI came out at 1.43%.
The compound `CN1CCN(c2ccc(-c3nc4ccc(OCc5cc(Cl)cc(Cl)c5)c(C(N)=O)c4[nH]3)cc2)CC1` displayed an IFI of 7.58%.
For the compound `CCc1cn(CCCOC)c2ccc(C(=O)N[C@@H](Cc3ccccc3)[C@H](O)CNCc3cccc(C(F)(F)F)c3)cc12`, the IFI was 5.19%.
In turn, `COc1cccc(CCc2c(CCNCCCCCCNCCc3ccccc3)ccc(OC)c2OC)c1` yielded an IFI of 14.4%.
To `N/C(=N\c1cccc(Cc2ccccc2)n1)NCc1ccccc1` belongs 21%; to `CN(C)CCCNc1ncnc2c1[nH]c1ccc(Br)cc12`, 1.52%.
Take `N=C1N=C(N)NC2(CCCCC2)N1OCCCOc1cc(Cl)c(Cl)cc1Cl`: the IFI turned out to be 14.7%.
To `CCCCCC(=O)N1CCOC(CCN2CCC(c3ccccc3)CC2)(c2ccc(Cl)c(Cl)c2)C1` (configuration not stated) belongs 8.78%; to `CC(C)(C)Oc1ccc(CC2NC3(C(=O)N(Cc4ccc(C(C)(C)C)cc4)c4ccccc43)C3C(=O)N(c4ccc(Br)cc4)C(=O)C23)cc1` (configuration not stated), 0.72%; to `CN1CCN(c2ccc3[nH]c(-c4ccc(Cc5cc(Cl)ccc5OCc5ccccc5)o4)nc3c2)CC1`, 24.7%.
`CCn1c(-c2nonc2N)nc2c(Cl)ncc(O[C@H](CCN)c3ccccc3F)c21` came in with an IFI of 23.1%.
Under `O=C(Nc1ccc(OC2CCN(Cc3ccsc3)C2)c(Cl)c1)c1ccc2ncccc2c1` (configuration not stated) stands 6.35%.

The record behind these values is ChEMBL document CHEMBL1157539, “Thousands of chemical starting points for antimalarial lead identification” (Nature, 2010).
